Reference: PubChem BioAssay AID651820 (National Center for Advancing Translational Sciences (NCATS), 2012)
Screen size: about 340,000 compounds; about 12,000 (3.5%) were called active. Inconclusive means that the source gave no clear call. Such entries were picked first, then a sample of the others. The call rests on the fitted dose curve; in most records, active means well fitted inhibition curve with a large enough effect; inconclusive means small, poorly fitted or top-dose-only effect, or another doubt; inactive means no such curve, though single readings can be large or run the other way. Potencies of inconclusive entries are left out as doubtful fits.

Assay: qHTS Assay for Inhibitors of Hepatitis C Virus (HCV)
Conditions: Huh7.5.1 HCVcc-Cre (HCVcc is cell-culture hepatitis C virus) infection, luciferase reporter, 44 h; series mostly up to 41.8 µM
Summary of the method: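 HCVcc-Cre virus at an moi near 0.5 was added right after compound to cells cultured 4 h from seeding (1,000 cells/well). Luciferase activity was determined 44 h later, 15 min after substrate addition at RT.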
Potency means the concentration at half of the fitted maximal effect; tags describe the fitted curve by direction and shape.

Row | Compound | Potency
1 | O=S(=O)(c1ccc(N2CCCCCC2)nc1)N1CCCC1 | inactive
2 | O=C(Nc1cccc(S(=O)(=O)Nc2ccc(Cl)cc2)c1)c1cc2c(s1)CCCC2 | active: 11.2 µM
3 | Cc1noc(C)c1S(=O)(=O)N(C)C[C@H]1Oc2ccc(NC(=O)NC3CCCCC3)cc2C(=O)N([C@H](C)CO)C[C@@H]1C | inactive
4 | CCOC(=O)C1CCN(c2c(NCc3ccc(C(=O)Nc4ccc(C)cc4)cc3)c(=O)c2=O)CC1 | inconclusive [inhibitor, full curve, poor fit]
5 | O=C(O)c1ccc(NC2=C(Cl)C(=O)c3ccccc3C2=O)cc1 | inconclusive [inhibitor, partial curve]
6 | CSc1cc(-c2ccc(Cl)cc2)c(C(=O)N2CCCC2)s1 | inconclusive [inhibitor, single point]
7 | COc1cccc2sc3ccc(NCCC4CCCN4C)cc3c(=O)c12 (centres undefined) | inconclusive [inhibitor, partial curve, poor fit]
8 | CCC(C)N1CCN(S(=O)(=O)c2ccc(NC(C)=O)cc2)CC1 (centres undefined) | inactive
9 | CC(C)N(C(=O)[C@H]1CC(CC(=O)NCCN2CCOCC2)C(=O)N2CCc3c([nH]c4ccccc34)[C@]12C)C(C)C (some centres undefined) | inconclusive [inhibitor, single point]
10 | CCOC(=O)c1cnc(-n2nc(C)cc2C)nc1NNc1ncc(-c2ccccc2)cn1 | inconclusive [inhibitor, partial curve]
11 | CCc1ccc(NC(=O)COn2nnc3ccc(S(=O)(=O)N(C)C)cc32)cc1 | inconclusive [inhibitor, partial curve]
12 | CC(C)c1ccc(NC(=S)N2CCN(C)CC2)cc1 | inactive
13 | Cc1ccc(NC(=S)N(CCN(C)C)Cc2cc3cccc(C)c3[nH]c2=O)cc1 | inconclusive [inhibitor, partial curve]
14 | COc1ccc(C(=O)N2CCC(C(=O)Nc3ccccc3C)CC2)cc1OC | inactive
15 | Nc1nnc(SCC(=O)NC2CCCCCC2)s1 | inactive
16 | Cc1cc(Cl)ccc1N(CC(=O)NCc1ccccc1)S(C)(=O)=O | inconclusive [inhibitor, single point]
17 | COc1ccc(Cc2noc(CN3CCN(C4CCc5ccccc5C4)CC3)n2)cc1OC (centres undefined) | inconclusive [inhibitor, single point]
18 | c1ccc2c(Nc3nncs3)c3ccccc3nc2c1 | inconclusive [inhibitor, partial curve]
19 | Cc1ccc2c3c(cccc13)-c1ccccc1C2=O | active: 5.62 µM
